# The whole screen tested about 390,000 compounds, of which about 930 (0.24%) were called active. This list was built around the results that the source calls inconclusive (neither active nor inactive); the mix of calls is not that of the screen. Calls come from the whole dose curve; as a rule, active = well fitted activation curve with a large enough effect; inconclusive = small, poorly fitted or top-dose-only effect; inactive = no such curve, though single readings can be large or run the other way. Potencies beside an inconclusive call are fits to weak or partial responses and may not hold up.
# Assay: qHTS for Suppressors of FUS Proteinopathy: Primary screen using FUS-linked yeast assay; note: nearly all actives have a fitted effect of over 55% in size;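 for growth rescue (activation): plate controls were DMSO vehicle for no effect and reference control for full effect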
# Settings: S. cerevisiae FUS-expressing, OD600, 24 h; Potency: growth rescue; growth rescue (activation): at 76.6 µM (top of the series)
# Method in brief: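 Yeast expressing FUS under galactose induction, OD 0.005 in 2% galactose medium; compounds in a dilution series, 24 h at 30C. Growth rescue by absorbance at 600 nm; CP55940 positive control, DMSO negative.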
# Potency is the fitted concentration of half-maximal effect; tags give direction and shape of the fitted curve.
SMILES,Potency,growth rescue (activation)
Cc1ccc(-c2csc(N3CCN(c4cc5c(cc4Cl)nc(C)n5CCN4CCCCC4)CC3)n2)cc1,"inconclusive: 39.8 µM [activator, single point]",–
Cc1ccc(-c2ccc(CN3C(C(C)C)C(=O)N(Cc4cn(CCC5OCCO5)nn4)CCS3(=O)=O)cc2)c(C)c1 (configuration not stated),"inconclusive: 25.1 µM [activator, single point]",–
Cc1cccc(N(C(=O)c2snc(C(N)=O)c2N)C(C(=O)NCC2CCCO2)c2c[nH]c3ccccc23)c1 (configuration not stated),"inconclusive: 50.1 µM [activator, single point]",–
O=C1NC(=S)/C(=C\c2ccc(-c3ccccc3Cl)o2)S1,–,inactive: 5.19%
CCCCOC(=O)C1=C(C)NC(=O)NC1c1ccc([N+](=O)[O-])s1 (configuration not stated),–,inconclusive: -105% [activator]
C=C(C)Cn1c(SCC(=O)N/N=C(\C)c2ccc(Br)cc2)nnc1-c1ccc(Br)cc1,–,inactive: 24.3%
Cc1ccccc1NC(=O)c1sc2nc3c(cc2c1N)CN(Cc1ccccc1)CC3,"inconclusive: 15.8 µM [activator, single point]",–
Cc1[nH]c2ccccc2c1C(=O)CN1C(=O)NC(C)(c2ccc(Cl)cc2Cl)C1=O (configuration not stated),"inconclusive: 50.1 µM [activator, single point]",–
CCC(C)NC(=O)c1sc2nc(C)c(C(=O)Nc3ccc(C)cc3C)c(-c3ccc(NC(C)=O)cc3)c2c1N (configuration not stated),"inconclusive: 50.1 µM [activator, single point]",–
COc1ccc(Cn2c(C(=O)O)c(CNCc3ccc(SC)cc3)c3ccc(OC)cc32)cc1,–,inactive: 14.1%
CCc1ccc(NS(=O)(=O)c2[nH]ncc2C(=O)OC)cc1,–,inactive: -26.4%
CCc1ccc2nc(N(CCCN(C)C)C(=O)c3ccc(S(=O)(=O)N4CCc5ccccc5C4)cc3)sc2c1,"inconclusive: 39.8 µM [activator, single point]",–
COC(=O)C(=Cc1ccccc1[N+](=O)[O-])C(=O)OC,–,inactive: -26.2%
CCCCc1c(-c2ccccc2OC)ncn1Cc1cccc(-c2ccccc2)c1,"inconclusive: 11.2 µM [activator, partial curve]",–
CCOc1ccc2nc(SCC(=O)NNC(=O)c3ccco3)c(C)cc2c1,–,inactive: 15.9%
Nc1c(Cl)cc2c(c1Br)Cc1ccccc1-2,–,inactive: -8.42%
CC(C)Oc1ccc(C(=O)Nc2ccc(N3CCCC3)cc2)cc1,"inconclusive: 8.91 µM [activator, partial curve]",–
COC(=O)[C@]12CCCCC=C1N(Cc1ccccc1)C(=O)[C@H](CC(=O)NCc1cccc(C(F)(F)F)c1)C2,"inconclusive: 15.8 µM [activator, partial curve, poor fit]",–
COc1ccc(-c2cc(-c3ccccc3)c(C#N)c(S(C)=O)n2)cc1 (configuration not stated),–,inactive: 8.98%
CCc1cccc(Nc2cnn(C34C[C@@H]5C[C@@H](CC(CC(=O)O)(C5)C3)C4)c(=O)c2Cl)c1,"inconclusive: 22.4 µM [activator, single point]",–
Cc1nn(Cc2ccc(F)cc2)c(C)c1NC(=O)c1cnn2c1NC(c1ccccc1)CC2C(F)(F)F (configuration not stated),"inconclusive: 44.7 µM [activator, single point]",–

SMILES,Potency,growth rescue (activation)
C=CCn1c(=O)[nH]c(=O)c2c(N)c(C(=O)c3ccc(OC)cc3)sc21,–,inactive: 8.26%
O=c1c2c(-c3cccs3)csc2ncn1-c1ccc(Br)cc1,"inconclusive: 28.2 µM [activator, single point]",–
Cc1[nH][nH]c(=O)c1C(c1ccc(-c2cccc(Cl)c2)o1)c1c(C)[nH][nH]c1=O,"inconclusive: 28.2 µM [activator, partial curve, poor fit]",–
COc1ccc(C(=O)Nc2ccc(S(=O)(=O)Nc3nccnc3OC)cc2)cc1,–,inactive: 5.45%
C#CCOCCOCCOCCNc1nc(N2CCN(C(=O)CCCCCCCCCCNC(=O)[C@H](CCCCN)n3cc(CCCC(=O)O)nn3)CC2)nc(N2CCN(C(=O)CCCCCCCCCCNC(=O)[C@@H]([C@H](C)O)n3cc(C)nn3)CC2)n1,"inconclusive: 14.1 µM [activator, partial curve, poor fit]",–
COc1ccc(-c2csc(NC(C)c3nc4cc(Cl)c(N5CCCCC5)cc4n3CCCO)n2)cc1 (configuration not stated),"inconclusive: 12.6 µM [activator, partial curve, poor fit]",–
CNC(=O)c1ccc2c(c1)N(Cc1ccccc1Cl)C(=O)c1ccccc1S2,"inconclusive: 31.6 µM [activator, single point]",–
COc1cc(/C=N/NC(=O)c2ccc(-c3ccccc3)cc2)cc(OC)c1OC,"inconclusive: 10 µM [activator, partial curve]",–
CCOC(=O)c1cc(C(=O)NNC(=O)c2cccc([N+](=O)[O-])c2)c(C)nc1C,–,inactive: 6.23%
O=C(COC(=O)c1cc(F)c(F)cc1Cl)NC1CC1,–,inactive: -15.9%
COc1ccc(O)c(C(=O)c2coc(=N)c(C(=O)Nc3ccc(SC(F)F)cc3)c2)c1,"inconclusive: 35.5 µM [activator, partial curve, poor fit]",–
COc1cccc(N2CCN(C3CC(=O)N(c4ccc(Cl)c(Cl)c4)C3=O)CC2)c1 (configuration not stated),"inconclusive: 50.1 µM [activator, single point]",–
CC(C)CNC(=O)COC(=O)c1c2c(nc3ccccc13)/C(=C/c1cccs1)CC2,–,inactive: 43.6%
Cc1ccc(S(=O)(=O)c2nc(-c3ccccc3F)oc2NCc2ccccc2)cc1,–,inactive: -19%
COc1cccc(-c2nc(-c3ccccc3)c(-c3ccccc3)[nH]2)c1OCC(=O)O,–,inactive: -1.08%
C=CCn1c(SCc2ccc(C#N)cc2)nnc1-c1cccc(Cl)c1,–,inactive: 12.2%
CCOC(=O)c1cccc(NC(=O)NC(C)c2c(-n3cccc3)sc3c2CCN(C)C3)c1 (configuration not stated),"inconclusive: 11.2 µM [activator, single point]",–
Cc1ccc(-c2ccc(CCC(=O)O)n2CC2CCCO2)cc1 (configuration not stated),–,inactive: 24.6%
CCOc1ccc(NS(=O)(=O)c2cc(C(=O)N3CCN(c4ccccc4O)CC3)ccc2Cl)cc1,"inconclusive: 20 µM [activator, partial curve, poor fit]",–
CCOC(=O)[C@]12CCCCC/C=C\1N(CCc1ccc(Cl)cc1)C(=O)[C@H]2CC(=O)NCCCOC,–,inactive: 37%
COc1ccc(/C=N/N2C(=O)CSC2=S)cc1Br,"inconclusive: 31.6 µM [activator, single point]",–

SMILES,Potency,growth rescue (activation)
COc1ccc(S[C@]2(C(=O)N3CCN(c4ncccn4)CC3)CC(=O)N(c3ccc(OC)cc3)[C@@H]2c2ccc(OC)cc2)cc1,"inconclusive: 12.6 µM [activator, partial curve, poor fit]",–
CC(C)CC(COCc1ccc(Cl)cc1)N1CCN(C(=O)c2ccc(Cl)cc2Cl)CCC1=O (configuration not stated),"inconclusive: 31.6 µM [activator, single point]",–
Cc1ccc(O)c(NC(=S)NC(=O)c2ccccc2Cl)c1,"inconclusive: 35.5 µM [activator, partial curve, poor fit]",–
COc1ccc(OC)c(NC(=O)C2C(C(=O)O)C3(Cl)C(Cl)=C(Cl)C2(Cl)C3(Cl)Cl)c1 (configuration not stated),"inconclusive: 28.2 µM [activator, partial curve]",–
COc1ccc(-c2onc3ccc(C(=O)/C=C/N(C)C)cc23)cc1,"inconclusive: 2.24 µM [activator, full curve]",–
CCc1nc(-c2ccc(C)c(S(=O)(=O)N3CCN(c4ccc(C(C)=O)cc4)CC3)c2)no1,"inconclusive: 8.91 µM [activator, partial curve]",–
CC1CCCCN1C(=O)Cn1c(=O)oc2ccccc21 (configuration not stated),–,inconclusive: 55.4% [activator]
CCOC(=O)C1CCN(C(=O)C2(NC(=O)Nc3ccc(F)cc3F)CCCCC2)CC1,"inconclusive: 3.98 µM [activator, full curve]",–
COC(=O)[C@@]12C[C@@H](CC(=O)N3CCC(c4ccccc4)CC3)C(=O)N(CCc3ccc(OC)c(OC)c3)C1=CCC(C)(C)C2,"inconclusive: 12.6 µM [activator, partial curve]",–
CC(=O)Nc1ccc(-c2csc(NNC(=O)c3ccc(C)cc3)n2)cc1,"inconclusive: 31.6 µM [activator, single point]",–
CCc1cc2c(-c3ccccc3)cc(=O)oc2cc1OC(C)C(=O)NCC1CCC(C(=O)O)CC1 (configuration not stated),"inconclusive: 35.5 µM [activator, single point]",–
COc1ccc2nc(C(c3ccc(C)cc3)n3c(-c4ccccc4Br)nc4ccccc43)[nH]c2c1 (configuration not stated),"inconclusive: 15.8 µM [activator, partial curve, poor fit]",–
O=[N+]([O-])c1cc(S(=O)(=O)Nc2ccccc2)ccc1Nc1ccccc1,–,inactive: 15.6%
CN(Cc1ccccc1)c1ccc(C(CC(N)=O)NC(=O)Cc2cccc3ccccc23)cc1[N+](=O)[O-] (configuration not stated),"inconclusive: 25.1 µM [activator, single point]",–
CCOC(=O)C1C(=O)OC(C)(C)C1C(CC)C(=O)c1c(C)cc(C)cc1C (configuration not stated),–,inactive: 20.2%
O=C(C1CCCN1S(=O)(=O)c1cccc2cccnc12)N1CCN(c2ccccc2)CC1 (configuration not stated),"inconclusive: 28.2 µM [activator, single point]",–
CCC(C(=O)Nc1ccc(C)c(Cl)c1)n1c(=O)c(-c2ccccc2NC(C)=O)nc2ccccc21 (configuration not stated),"inconclusive: 28.2 µM [activator, single point]",–
Cc1ccc(/C([O-])=C(/C(=S)NCc2ccccc2)[n+]2cccc(CO)c2)cc1[N+](=O)[O-],"inconclusive: 35.5 µM [activator, single point]",–
Cc1cccc(C)c1NC(=O)c1sc(-n2nc(C)c(Cc3ccc4c(c3)OCO4)c2C)nc1C,–,inactive: -15.3%
CCOC(=O)C(Oc1ccc2c(-c3ccccc3)cc(=O)oc2c1)c1ccccc1 (configuration not stated),"inconclusive: 25.1 µM [activator, partial curve, poor fit]",–

# Reference: PubChem BioAssay AID1347120 (National Center for Advancing Translational Sciences (NCATS), 2019)
